The values below come from PubChem BioAssay AID485344 (National Center for Advancing Translational Sciences (NCATS), 2010).

The campaign covered roughly 340,000 compounds. About 6,900 (2%) were called active. Cut-off read from the data, not from the text of the source: active = inhibition above about 30%; inactive = below that, where a call was filed. Only a part is listed here, and it is no random draw. Where no call is shown, the source filed none.

For the assay, the target named is D(2) dopamine receptor (Homo sapiens) (UniProt P14416). As to the kind of experiment: HTS Assay for Allosteric Antagonists of the Human D2 Dopamine Receptor: Primary Screen for Antagonists. Note: 0% is about no effect. The note with it: HEK293 TREx D2 cells, calcium flux, dopamine EC80; at 10 µM; stronger effect = higher value. In a few lines: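 Inhibition of EC80 dopamine-driven calcium flux, recorded kinetically, defines activity here; cells are a tetracycline-induced HEK293 T-REx line expressing force-coupled D2.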
UniProt P14416, sequence (P14416 whole entry, looked up): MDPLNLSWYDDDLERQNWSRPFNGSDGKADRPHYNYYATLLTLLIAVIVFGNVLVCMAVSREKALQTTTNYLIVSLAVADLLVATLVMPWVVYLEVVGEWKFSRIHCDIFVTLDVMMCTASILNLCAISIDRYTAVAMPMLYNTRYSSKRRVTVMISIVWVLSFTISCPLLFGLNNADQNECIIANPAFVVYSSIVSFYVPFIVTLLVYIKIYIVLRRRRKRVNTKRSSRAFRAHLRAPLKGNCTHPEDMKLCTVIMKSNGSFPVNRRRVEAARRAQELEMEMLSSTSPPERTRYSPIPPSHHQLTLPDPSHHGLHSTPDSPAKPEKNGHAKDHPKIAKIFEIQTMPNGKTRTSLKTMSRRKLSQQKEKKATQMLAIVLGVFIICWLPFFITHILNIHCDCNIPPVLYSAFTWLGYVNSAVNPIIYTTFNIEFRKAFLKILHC
On the technique in general: Calcium assays in cells follow changes in intracellular calcium, usually with a dye or a luminescent sensor.
Usually inhibition stands for the change of the read-out against control, counted positive when it falls. `COc1ccc(OC)c(CCNC(=O)c2cc3cccc4c3n2CCS4)c1`: the inhibition amounted to 10.9%. In the case of `Cc1cc2n(n1)CCCN2C(=O)Nc1ccc(C)c(Cl)c1`, the inhibition was 1.05%.

As for `Cc1ccc(C)c(N2CCN(S(=O)(=O)c3ccc(F)c(C(=O)Nc4ccc(Cl)cc4Cl)c3)CC2)c1`, the inhibition was found to be 0.261%. As for `CCN(Cc1ccccc1)C(=O)CCS(=O)(=O)c1cc(Br)cc2c1N(C(=O)C1CC1)CC2`, the inhibition is 6.56%. Take `CN(c1ccccc1)S(=O)(=O)c1nnc(NC(=O)c2cccs2)s1`: the inhibition turned out to be 7.45%.

On to `CCCSc1ncc(Cl)c(C(=O)Nc2sc3c(c2C(N)=O)CCCC3)n1`, for which the inhibition was -1.11%.

As to `O=C1C2C3CCC(O3)C2C(=O)N1c1cc(OCC(F)F)cc([N+](=O)[O-])c1` (stereo not drawn), the inhibition was active: 34.8%. On to `O=c1c(NCCc2ccc(Cl)cc2)nccn1-c1ccccc1`, for which the inhibition worked out at 3.61%.

With `COC(=O)c1ccc(-n2nnc(-c3nsc(NC(=O)c4ccc(Cl)cc4)n3)c2C)cc1`, the inhibition is 25.6%. Under `COc1ccccc1NC(=O)CCNS(=O)(=O)c1ccc2c(c1)CCN2C(=O)C1CC1` stands -4.4%.

For `COc1ccc(S(=O)(=O)N(CC(=O)NCCSc2ccccc2)c2ccc(Cl)cc2)cc1`, the inhibition was -6.16%.

Take `O=C(CSc1nccn1Cc1ccc(F)cc1)NCc1ccccc1`: the inhibition was 7.71%. On to `Cc1cccc(OCC(=O)Nc2cccc(C(=O)OCc3cc(=O)n4c(C)csc4n3)c2)c1`, for which the inhibition turned out to be 14.3%. Next, `COc1ccc(-n2ncc(C(=O)NCc3ccc4c(c3)OCO4)c2C2CCN(C(=O)OC(C)(C)C)CC2)cc1`: 11.9%.

In the case of `CCc1cccc(N2C(=O)CSC23C(=O)N(Cc2ccccc2F)c2ccccc23)c1` (stereo not drawn), the inhibition amounted to 3.12%. `COc1ccc(-c2cn3nc(SCC(=O)Nc4ccccc4F)ccc3n2)cc1`: the inhibition was -1.03%. Under `COC(=O)c1scc(-c2ccc(C)cc2)c1S(=O)(=O)Nc1ccc(NC(C)=O)cc1` stands -1.09%; under `Cc1cc(C)c(NC(=O)COCc2cc(-c3cccs3)on2)c(C)c1`, 18.3%. In the case of `CCN(CC)CCCNC(=O)C(C)Sc1nc(-c2ccccc2)cc(C(F)(F)F)n1` (stereo not drawn), the inhibition was active: 31.2%. `Cc1cc(C)cc(OC2CCCCC2NS(=O)(=O)c2ccccc2)c1` (stereo not drawn): the inhibition is active: 36.2%. `CNS(=O)(=O)c1cn(CC(=O)N2CCN(c3ccc(Cl)cc3)CC2)cc1S(=O)(=O)NC`: the inhibition was -4.31%. For `Cc1nc2cccnc2n1C1CCN(C(=O)Nc2ccccc2C(F)(F)F)CC1`, the inhibition was 18.2%. Next, `CCOc1ccc(-n2nc(CO)c(C(=O)NCC(c3ccccc3)c3ccccc3)n2)cc1`: -12.6%. Turning to `COc1ccc(C(=O)COC(=O)CCCC(=O)Nc2ccc(C(C)=O)cc2)cc1`, the inhibition was -9.64%. Next, `O=C(NCc1ccccc1)c1cccc(N2CCCS2(=O)=O)c1`: -3.73%; `O=c1ccc2cc(S(=O)(=O)NCc3ccc(Cl)cc3)ccc2[nH]1`: -4.46%.

Take `CCN(CC)c1ccc2cc(-c3nc(-c4ccccc4)no3)c(=O)oc2c1`: the inhibition is -8.6%. On to `Cc1cc(C)c(NC(=O)Cn2nnc(C(=O)NCc3cccs3)c2N)c(C)c1`, for which the inhibition amounted to 20%. Under `Cc1ccc(CNC(=O)c2c(-c3ccc(F)cc3F)noc2C)o1` stands -22%.

Take `COc1ccc(-c2cn3nc(N4CCCC(C(=O)Nc5cc(Cl)ccc5OC)C4)sc3n2)cc1` (stereo not drawn): the inhibition was -5.35%. In the case of `O=C(NCc1cccc(Cl)c1)C1CCN(c2nn3cc(-c4ccc(F)cc4)nc3s2)CC1`, the inhibition worked out at 0.483%.

On to `COc1cc(NC(=O)Cn2c(=O)n(-c3ccccc3)c(=O)c3c4c(sc32)CCCC4)cc(OC)c1`, for which the inhibition is 18.5%. Take `Cc1ccccc1OCc1ccc(-c2nc(C#N)c(N3CCCCC3)o2)o1`: the inhibition was -2.28%. On to `COc1ccc(CC(=O)NCC(c2ccc(N(C)C)cc2)N2CCOCC2)cc1OC` (stereo not drawn), for which the inhibition amounted to 3.86%. For `CC1CCN(S(=O)(=O)c2ccc(NC(=O)CN3CCN(c4ccccc4)CC3)cc2)CC1`, the inhibition was active: 59.1%.

Regarding `CCOC(=O)c1cc2c(=O)n3ccccc3nc2n(Cc2ccco2)c1=NC(=O)c1ccc(OC)cc1`, the inhibition was 4.13%. For `CC(C)COc1ccc(C(=O)Nc2scc(-c3ccc(Br)cc3)c2C(=O)OC(C)C)cc1`, the inhibition is -9.58%.

As for `CSc1ccc(CNC(=O)c2ccc3c(c2)N(C)C(=O)C2CCCCN32)cc1` (stereo not drawn), the inhibition turned out to be 13.9%. Take `CC(=O)N1CCCc2cc(S(=O)(=O)N3CCCC(C(=O)N4CCN(c5ccccc5F)CC4)C3)ccc21` (stereo not drawn): the inhibition is -12%. As for `Cc1ccc2c(c1)-c1c(cnn1CC(=O)N1CCN(c3cccc(C(F)(F)F)c3)CC1)CO2`, the inhibition is 9.85%.

As to `COC(=O)c1c(C)[nH]c(C(=O)/C=C/c2ccc(Cl)cc2)c1C`, the inhibition is active: 40.8%. Next, `C=CCN(CC=C)C(=O)Cc1ccc(F)cc1`: active: 31.1%. Next, `CCc1cccc(C)c1NS(=O)(=O)c1ccc2c(c1)NC(=O)C(C)C(=O)N2` (stereo not drawn): -11.3%; `Cc1nc(SCC(=O)OC(C)(C)C)c2c3c(sc2n1)CCCC3`: -9.67%; `Cc1nn(S(=O)(=O)c2ccc(C(C)C)cc2)c(C)c1S(=O)(=O)N1CCCCC1`: -4.42%.

Turning to `COc1ccc(CNC(=O)c2ccc(CNS(=O)(=O)c3ccc(OC)cc3)cc2)cc1`, the inhibition stood at 13%. Turning to `COc1cccc(NC(=O)c2ccc3c(=O)n4nc(Nc5ccccc5OC)sc4nc3c2)c1`, the inhibition was 11.6%. In the case of `COCCCNC(=O)c1ccc(Cn2c(=O)c3ccccc3n(Cc3ccc(C)cc3)c2=O)cc1`, the inhibition is -16.1%. As to `COCCOC(=O)Cn1nnc2sc(-c3ccccc3)cc2c1=O`, the inhibition amounted to 23.2%. Under `CCOc1ccc(Oc2ccccc2NC(=O)C2=COCCO2)cc1` stands active: 37.2%; under `CCOC(=O)c1ccc(NC(=O)CC2Nc3cc(C)c(C)cc3NC2=O)cc1` (stereo not drawn), 2.44%. For `CC1CCCCN1C(=O)c1cccc(NC(=O)c2ccccc2)c1` (stereo not drawn), the inhibition was active: 36.5%.

In the case of `COc1ccc(CNC(=O)CN2C(=O)COc3ccc(S(=O)(=O)N4CCCCCC4)cc32)cc1`, the inhibition is 14.1%.

For the compound `COc1ccc(-n2c(SCC(=O)NCc3ccccc3)nc3ccsc3c2=O)cc1`, the inhibition turned out to be 26.3%. Turning to `COC(=O)c1sccc1S(=O)(=O)N(CC(=O)Nc1cc(C)cc(C)c1)c1ccc(Cl)cc1`, the inhibition stood at 14.1%. Next, `COc1ccc(NC(=O)c2nn(C)c3c2CSc2ccc(C)cc2-3)cc1OC`: -8.85%; `Cc1ccc(C2Nc3ccccc3-n3c(-c4ccccc4)c4c(=O)n(C)c(=O)n(C)c4c32)cc1` (stereo not drawn): 7.37%. On to `COc1cccc(NC(=O)Cn2c(=O)n(Cc3nc(-c4ccccc4)no3)c(=O)c3ccccc32)c1`, for which the inhibition is -2.44%. `CCOc1ccc(-c2cc(C)n3nc(C(=O)Nc4cc(Cl)ccc4O)cc3n2)cc1`: the inhibition was determined as 3.82%. Under `CCC(=O)Nc1ccc(S(=O)(=O)NCc2cccn2Cc2cccc(C)c2)cc1` stands 6.35%; under `COc1ccccc1/C=C(\C#N)c1nc(-c2cc3ccccc3oc2=O)cs1`, -3.15%. On to `COc1ccc(S(=O)(=O)NCCc2sc(-c3ccccc3)nc2C)cc1OC`, for which the inhibition came out at 13.9%. With `CCOC(=O)N1CCC(NC(=O)c2cnn(-c3ccccc3)c2C2CCN(C(=O)OC(C)(C)C)CC2)CC1`, the inhibition was -11.1%. For `CCc1ccccc1NC(=O)CSc1ncc2c(n1)-c1ccccc1N(C)S2(=O)=O`, the inhibition was found to be 12.2%. Next, `O=C(NCCC1=CCCCC1)c1ccc2c(c1)ncn2-c1cccc(Cl)c1`: 8.2%; `FC(F)(F)c1ccccc1NC(=S)NC1CCN(Cc2ccccc2)CC1`: active: 115%. As for `Cn1c(=O)c2c(-c3ccccc3)n3c(c2n(C)c1=O)C(c1cc(Cl)ccc1O)Nc1ccccc1-3` (stereo not drawn), the inhibition was determined as 25.1%. `O=C(CCNS(=O)(=O)c1cccc2nsnc12)Nc1ccc(F)cc1`: the inhibition is -1.5%. Turning to `Cc1csc2nc(-c3cccc(NC(=O)c4ccc(S(N)(=O)=O)cc4)c3)cn12`, the inhibition is -2.74%.

As to `COc1ccc(-c2nc3cc(NC(=O)COc4ccc(F)cc4)ccc3o2)cc1`, the inhibition is -5.97%. Next, `COc1ccc(OC)c(CNC(=O)c2cc(=O)[nH]c3ccc(S(=O)(=O)N4CCCCC4C)cc23)c1` (stereo not drawn): -8.12%; `NC(=S)NNC(=O)C12CC3CC(CC(C3)C1)C2`: active: 43.9%. Turning to `Cc1ccc2cccc(NC(=O)c3ccc(-c4ccc(Cl)cc4Cl)o3)c2n1`, the inhibition was -8.64%. As for `Cc1ccc(C(=O)N2c3nc(-c4ccco4)nn3C3(CCCCC3)[C@@H]3CCCC[C@@H]32)cc1`, the inhibition came to 8.24%. For `Cc1cc(Nc2ccc(C)c(Cl)c2)n2nc(-c3ccccc3)nc2n1`, the inhibition was 1.41%. In the case of `CC1CCN(S(=O)(=O)c2cccc(C(=O)NC3CCS(=O)(=O)C3)c2)CC1` (stereo not drawn), the inhibition came to 14.5%. Next, `CCN(C(=O)C(NS(=O)(=O)c1cccc2nsnc12)c1ccccc1)c1ccccc1` (stereo not drawn): -10.2%; `Cc1ccc(C)c(N2CCN(CCCNc3ncnc4onc(-c5ccc(Cl)cc5)c34)CC2)c1`: 15%. Take `COCCCNC(=O)CCCN1C(=O)CCn2nc(-c3cn(C)c4ccccc34)cc21`: the inhibition is -7.48%. Regarding `COc1ccc(-c2ccnc3c2c(=O)n(C)c(=O)n3C)cc1OC`, the inhibition came out at 6.51%.

As for `Cc1ccc(NC(=O)[C@H](CSCc2ccccc2)N2Cc3ccccc3C2=O)cc1`, the inhibition is -23.1%. Take `COc1cccc(CNC(=O)Cn2c(=O)n3nc(-c4cccc(C)c4)nc3c3ccccc32)c1`: the inhibition is 15.9%. As for `O=C(C1CCN(c2nnc(-n3cccc3)s2)CC1)N1CCN(Cc2ccc3c(c2)OCO3)CC1`, the inhibition is active: 31.5%. As to `O=C(OCc1nnc(-c2ccc([N+](=O)[O-])cc2)o1)C1CCN(C(=O)c2ccc(F)cc2)CC1`, the inhibition was active: 34.7%.

As to `CCCCN(Cc1ccccc1)S(=O)(=O)c1ccc2c(c1)CCN2C(=O)C1CCC1`, the inhibition was -13%. Turning to `O=C(Cn1nc(Cc2cccnc2)c2ccccc2c1=O)N1CCN(c2ccc(F)cc2)CC1`, the inhibition is -8.26%. With `CCCSCCCNC(=O)C1CCCN(C(=O)c2cnn(-c3ccccc3)c2-n2cccc2)C1` (stereo not drawn), the inhibition is -1.43%. Turning to `COc1ccc(Nc2ncnc3onc(C)c23)cc1Cl`, the inhibition came out at 3.82%.

On to `COC(=O)c1ccc(OCC2c3cc(OC)c(OC)cc3CCN2C(=O)c2cccc(C)c2)cc1` (stereo not drawn), for which the inhibition is -0.532%. For the compound `CC(C)c1[nH]nc2c1C1(CCN(Cc3ccccc3)CC1)C(C#N)=C(N)O2`, the inhibition is active: 39.6%. `COc1cccc(N2CCN(C(=O)CN3CCSc4ccc(S(=O)(=O)N(C)C)cc43)CC2)c1`: the inhibition turned out to be 3.96%.

For the compound `COc1ccc(NC(=O)C2CCN(C3=NS(=O)(=O)C(c4ccc(C)c(C)c4)=C3C)CC2)cc1OC`, the inhibition was -6.08%. With `COc1ccc(CNC(=O)CCS(=O)(=O)c2cc(Br)cc3c2N(C(=O)C2CC2)CC3)cc1`, the inhibition is 19.9%.
